Assay results taken from PubChem BioAssay (Tox21).
“And” between values parts separate entries of the source, which are not always exact repeats. Identical values can stand only once. This list was built around the results that the source calls inconclusive (neither active nor inactive); the mix of calls is not that of the screen. Potencies of inconclusive entries are doubtful fits and often do not repeat. Some structures have more than one record in an assay (separate samples or runs), and their calls can disagree. The source made the active and inactive calls. Calls come from the whole dose curve; as a rule, active = well fitted cell-killing curve with a large enough effect in the repeat runs; inconclusive = weak or mixed curves, or effect the other way; inactive = flat fitted curve, though single readings scatter.

experiment: qHTS assay to identify small molecule agonists of the estrogen receptor beta (ER-beta) signaling pathway - cell viability counter screen (AID 1259380); settings: ER-beta-bla HEK293T viability, CellTiter-Glo luminescence, 16 h; series mostly up to 92.4 µM; activity change, negative = cytotoxicity: at the top concentration; note: nearly all actives have a fitted effect of over 30% in size
Excerpt: National Center for Advancing Translational Sciences [NCATS]
NIH Chemical Genomics Center [NCGC]
U.S. Environmental Protection Agency [EPA]
National Institutes of Environmental Health Sciences [NIEHS]
National Toxicology Program [NTP]
U.S. Food and Drug Administration [FDA]
Estrogen receptor (ER), a nuclear hormone receptor, plays an important role in development, metabolic homeostasis and reproduction. Two subtypes of ER, ER-alpha and ER-beta, have similar expression patterns with some uniqueness in both types. Endocrine disrupting chemicals (EDCs) and their interactions with steroid hormone receptors like ER causes disruption of normal endocrine function. To identify the compounds that activate ER signaling, an ER beta-UAS-bla GripTite cell line (Life Technologies, Madison, WI, USA) containing a beta-lactamase reporter gene under the control of an UAS response element was used to screen Tox21 10K compound library. The cytotoxicity of the Tox21 compound library against the ER-beta-bla cell line was tested in parallel by measuring the cell viability using CellTiter-Glo assay in the same wells.
Tox21 Assay Protocol Summary:
ER-beta-UAS-bla HEK293T cells were dispensed at 2,000 cells/5 uL of assay medium containing 2% charcoal stripped FBS per well into black wall/clear-bottom 1536-well plates using a Multidrop Combi (ThermoFisher Scientific, Waltham, MA) dispenser. After the assay plates were incubated at a 37C and 5% CO2 for 6 hr, 23 nL of compounds dissolved in DMSO, positive controls or DMSO only was transferred to the assay plate by a Pintool station (Kalypsys, San Diego, CA). The plates were incubated at 37C and 5% CO2 for 16 hr. Then 1 uL of LiveBLAzerTM B/G FRET substrate was added using a BioRAPTR FRD (Flying Reagent Dispenser, Aurora Discovery, San Diego, CA) and then the plates were incubated at room temperature for 2 hours, and fluorescence intensity was measured by an Envision plate reader (PerkinElmer, Shelton, CT). For cell viability readout that measures cytotoxicity, 4 uL/well of CellTiter-Glo reagent was added into the assay plates using a FRD. After 30 min incubation at room temperature, the luminescence intensity in the plates was measured using a ViewLux (PerkinElmer) plate reader.
% is set by controls: 0 for no effect and ±100 for the full control effect; potency is the fitted concentration of half-maximal effect; tags give direction and shape of the fitted curve.

SMILES | Potency | activity change, negative = cytotoxicity
O=C(O)C(O)[C@H](O)[C@@H](O)[C@H](O)[C@H](O)CO (stereo not given in full) | inconclusive: 77.8 µM [cytotoxic, partial curve, poor fit] | –
C[C@]12C[C@H](O)[C@H]3[C@@H](CCC4=CC(=O)CC[C@@]43C)[C@@H]1CC[C@@H]2C(=O)CO | inconclusive: 27.4 µM [cytotoxic, single point] | –
NS(=O)(=O)c1cc2c(cc1Cl)NC(C1CC3C=CC1C3)NS2(=O)=O (stereo not given) | – | inactive: -0.356% [at 42.5 µM]
CCCN(CCc1cccs1)[C@H]1CCc2c(O)cccc2C1 | inconclusive: 29.8 µM [cytotoxic, single point] | –
CCCC(=O)OC[C@@H](OC(=O)CCC)[C@@H](OC(=O)CCC)[C@H](Cn1c2nc(=O)[nH]c(=O)c-2nc2cc(C)c(C)cc21)OC(=O)CCC | active: 16.8 µM | –
CCN(CC)CCSC(=O)C(c1ccccc1)c1ccccc1 | active: 29.8 µM | –
CC(C)C(O)C(C)(C)CO (stereo not given) | inconclusive: 2.51 µM [cytotoxic, full curve] | –
CO[Si](CCCOCC1CO1)(OC)OC (stereo not given) | inactive | –
CNCC[C@H](Oc1cccc2ccccc12)c1cccs1 | active: 16.8 µM | –
c1ccc(Nc2ccccc2)cc1 | inconclusive: 68.5 µM [cytotoxic, single point] and inactive | –
COC(=O)c1ccc(C)cc1 | inactive | –
CCCc1c(OCCCCc2nn[nH]n2)ccc(C(C)=O)c1O | active: 68.6 µM and inconclusive: 26.6 µM [cytotoxic, partial curve] | –
Cc1oc(C)c(C(=O)Nc2ccccc2)c1C | inconclusive: 34.4 µM [cytotoxic, partial curve] | –
COCCCC/C(=N\OCCN)c1ccc(C(F)(F)F)cc1 | active: 13.3 µM | –
CC(N)CCCC(C)(C)O (stereo not given) | inconclusive: 29.8 µM [rising, single point] | –
O=CCCCC=O | inactive | –
CCCCC/C=C\C/C=C\CCCCCCCC(=O)O | inconclusive: 16.9 µM [cytotoxic, partial curve] | –
O=C(O)c1ccccc1OP(=O)(O)O | – | inactive: -0.123% [at 42.5 µM]
C/C(=C\C(C)CC(C)CC(C)C)C1CC(=O)OC1=O (stereo not given) | inconclusive: 43.3 µM [cytotoxic, partial curve] | –
CCCCCCCCCCCC[N+](C)(C)C | active: 60.9 µM and inconclusive: 12.2 µM [cytotoxic, partial curve, poor fit] and inconclusive: 86.3 µM [cytotoxic, partial curve, poor fit] | –

SMILES | Potency | activity change, negative = cytotoxicity
C=CCON/C(CCC)=C1\C(=O)CC(C)(C)C(C(=O)OC)=C1O | – | inactive: 4.95%
COc1cccc2c1C(=O)c1c(O)c3c(c(O)c1C2=O)C[C@@](O)(C(=O)CO)C[C@@H]3O[C@H]1C[C@H](N)[C@H](O)[C@H](C)O1 | active: 0.473 µM | –
Cc1nc(-c2ccc(OCC(C)C)c(C#N)c2)sc1C(=O)O | inconclusive: 21.1 µM [cytotoxic, partial curve, poor fit] | –
c1cc2c3c(c1)ccc1cccc(c13)C2 | inconclusive: 70.1 µM [cytotoxic, single point] | –
O=[N+]([O-])c1ccc(O)cc1 | inactive | –
C=C(C)C(=O)OCC(C)O (stereo not given) | inactive | –
CN(C)CCOC(c1ccccc1)c1ccc(Br)cc1 (stereo not given) | active: 23.7 µM | –
CCCC(C(=O)OCCN(CC)CC)(c1ccccc1)c1ccccc1 | active: 29.8 µM | –
CCOC(=O)c1ccc(OC(=O)CCCCCN=C(N)N)cc1 | inconclusive: 33.5 µM [rising, partial curve, poor fit] | –
C[C@H](CCC(=O)O)[C@H]1CC[C@H]2[C@@H]3[C@H](O)C[C@@H]4C[C@H](O)CC[C@]4(C)[C@H]3CC[C@]12C | inconclusive: 61.3 µM [cytotoxic, single point] | –
Cc1ccc(CCn2c3c(c4cc(Cl)ccc42)CN(C)CC3)cn1 | active: 26.6 µM | –
C/C(=C(/OCCOc1ccc(Cl)cc1)c1ccc(Cl)cc1Cl)n1ccnc1 | active: 15 µM | –
CCN(CC)c1ccc2c(-c3ccc(S(=O)(=O)O)cc3S(=O)(=O)[O-])c3ccc(=[N+](CC)CC)cc-3oc2c1 | inconclusive: 89.1 µM [cytotoxic, single point] | –
CC1(C)CCC(C)(C)c2cc(C(=O)Nc3ccc(C(=O)O)cc3)ccc21 | inconclusive: 27.3 µM [cytotoxic, single point] | –
COc1cc2nc(N3CCN(C(=O)c4ccco4)CC3)nc(N)c2cc1OC | inconclusive: 16.4 µM [cytotoxic, single point] | –
Nc1nc2ccccc2n1Cc1ccc(F)cc1 | inconclusive: 4.73 µM [cytotoxic, partial curve] | –
Oc1ccc(Cl)cc1Sc1cc(Cl)ccc1O | active: 48.5 µM and active: 29.8 µM | –
O=C1CCCCCCCCCCCN1 | inactive | –
CCO[C@@H]1O[C@H](C(COCc2ccccc2)OCc2ccccc2)[C@H](OCc2ccccc2)[C@H]1O (stereo not given in full) | inconclusive: 7.5 µM [cytotoxic, full curve, poor fit] | –
C=CC(=O)OCCCCCCOC(=O)C=C | inconclusive: 27.6 µM [cytotoxic, single point] | –
